{"source": "PubChem BioAssay AID686978", "about": "(National Center for Advancing Translational Sciences (NCATS), 2013)", "note": "Hit rate of the full screen: of about 420,000 compounds, about 64,000 (15%) were called active. Inconclusive results, whose numbers are uncertain, are shown with a selection of clear calls. Calls follow the shape of the dose curve; as a rule, active = well fitted inhibition curve with a large enough effect; inconclusive = small, poorly fitted or top-dose-only effect; inactive = flat fitted curve, though single readings scatter. Potencies of inconclusive entries are left out as doubtful fits. % is scaled to controls: 0 for no effect and ±100 for the full control effect; potency is read from the fitted curve at half-maximal effect; tags tell the direction and shape of the fitted curve.", "data": [{"test": "qHTS for Inhibitors of human tyrosyl-DNA phosphodiesterase 1 (TDP1): qHTS in cells in absence of CPT; also: nearly all actives have a fitted effect of over 55% in size", "settings": "DT40 Tdp1-/- hTDP1 cells, no CPT, ATP luminescence, 48 h; activity change, negative = growth inhibition: at 46.2 µM (top of the series) unless noted", "outline": "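Cells were dispensed at 400 per well, compounds added by pin tool, plates incubated ≥48 hr at 37 °C, then CellTiter-Glo added for 30 min at room temperature before luminescence reading. Line: DT40 Tdp1-/- complemented with hTDP1; camptothecin omitted.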", "values": [{"smiles": "CC1CC(O)CC(C)(C)C1", "note": "(stereo unspecified)", "activity change, negative = growth inhibition": "inactive: -2.65%"}, {"smiles": "COc1ccc(-c2cn(-c3cccc(C)c3)c(=O)[nH]2)cc1OC", "Potency": "inconclusive [inhibitor, single point]"}, {"smiles": "CCCCC(=O)NC(=S)Nc1c(C)cc(Br)cc1C", "Potency": "active: 18.4 µM"}, {"smiles": "COc1ccc(Cl)cc1NC(=O)CSc1nc(N2CCCCC2)nc(N2CCCCC2)n1", "Potency": "active: 16.4 µM"}, {"smiles": "Cc1ccc(S(=O)(=O)c2nc(S(C)(=O)=O)sc2N2CCC(C)CC2)cc1", "Potency": "active: 14.6 µM"}, {"smiles": "O=C(CN1C(=O)c2cccc3cccc(c23)C1=O)N1CCCCC1", "activity change, negative = growth inhibition": "inactive: -23.4%"}, {"smiles": "O=C(C1CCN(S(=O)(=O)c2ccc(Cl)cc2)CC1)N1CCCC1", "Potency": "inconclusive [inhibitor, single point]"}, {"smiles": "Cc1cccc(CNC(=O)C2CCN(c3nn4cc(-c5ccc(F)cc5)nc4s3)CC2)c1", "activity change, negative = growth inhibition": "inactive: -29.8%"}, {"smiles": "COc1ccc(-n2ncc(C(=O)NCc3cccs3)c2C2CCN(C(=O)OC(C)(C)C)CC2)cc1", "Potency": "inconclusive [inhibitor, single point]"}, {"smiles": "COc1ccc(-c2nn(-c3ccccc3)cc2/C=C2/SC(=S)N(CCC(=O)O)C2=O)c(C)c1", "Potency": "inconclusive [inhibitor, single point]"}, {"smiles": "CNCC(C)COc1ccccc1OCc1ccccc1", "note": "(stereo unspecified)", "Potency": "inconclusive [inhibitor, single point]"}, {"smiles": "O=C1OCC(CO)(CO)N=C1NNc1ccccc1Cl", "activity change, negative = growth inhibition": "inactive: -8.1%"}, {"smiles": "Cc1nc2ccccc2c2oc(C(=O)Nc3ccc(C(C)C)cc3)cc12", "Potency": "active: 20.6 µM"}, {"smiles": "CCC(=O)N1CCCC(C)(C(=O)Nc2ccc3oc(CC)nc3c2)C1", "note": "(stereo unspecified)", "activity change, negative = growth inhibition": "inactive: -1.61%"}, {"smiles": "COc1ccc(Nc2nc(N)nc(CSC(=S)N3CCOCC3)n2)cc1", "Potency": "inconclusive [inhibitor, single point]"}, {"smiles": "CN1CC2(C)CN(C(c3ccccc3)c3ccccc3)CC(C)(C1)C2O", "note": "(stereo unspecified)", "Potency": "inconclusive [inhibitor, partial curve]"}, {"smiles": "N#CC1=C(S)N(c2ccccc2)C(c2ccc(-c3cccc(Cl)c3)o2)NC1=O", "note": "(stereo unspecified)", "Potency": "inconclusive [inhibitor, single point]"}, {"smiles": "O=C(Cc1ccc(Cl)cc1)NC1CC(=O)N(c2ccc3c(c2)OCCO3)C1", "note": "(stereo unspecified)", "activity change, negative = growth inhibition": "inactive: -18.6%"}, {"smiles": "COCCOC(=O)C1=C(C)NC(C)=C(C(=O)OC/C=C/c2ccccc2)C1c1cccc([N+](=O)[O-])c1", "note": "(stereo unspecified)", "Potency": "inconclusive [inhibitor, single point]"}, {"smiles": "Cc1cccc(N=Nc2c(N)n[nH]c2N)c1", "activity change, negative = growth inhibition": "inactive: 4.46%"}, {"smiles": "COC(=O)[C@]12CCCCC=C1N(CCc1ccc(OC)c(OC)c1)C(=O)[C@H](CC(=O)NCCCCc1ccccc1)C2", "Potency": "active: 16.4 µM"}, {"smiles": "Cc1ccc(NN2C(=O)C=C(c3ccc(Cl)cc3)C2=O)cc1", "Potency": "active: 4.11 µM"}, {"smiles": "CC[n+]1c(C)n(-c2ccccc2)c2ccc(NC(C)=O)cc21", "Potency": "active: 2.59 µM"}, {"smiles": "N=c1ccn(Cc2cccc(Cl)c2)cc1", "Potency": "active: 2.06 µM"}, {"smiles": "COc1ccc(N2CC(C(=O)Nc3nnc(C4CCCCC4)s3)CC2=O)cc1", "note": "(stereo unspecified)", "Potency": "inconclusive [inhibitor, single point]"}, {"smiles": "O=C(Nc1ccncc1)c1c(F)cccc1F", "Potency": "inconclusive [inhibitor, single point]"}, {"smiles": "CC1CCN(C(=O)Cn2cc(SCC(=O)NCc3ccccc3)c3ccccc32)CC1", "Potency": "inconclusive [inhibitor, single point]"}, {"smiles": "Cn1nc(C(=O)NC2CCCN(Cc3ccccc3F)C2)c2ccccc2c1=O", "note": "(stereo unspecified)", "Potency": "inconclusive [inhibitor, partial curve]"}, {"smiles": "COc1cccc(NC(=O)CNS(=O)(=O)c2ccc(Cl)cc2)c1", "activity change, negative = growth inhibition": "inactive: 5.54%"}, {"smiles": "CCOc1c(CNCCCSc2nc(C)cc(C)n2)cccc1OC", "Potency": "inconclusive [inhibitor, partial curve, poor fit]"}, {"smiles": "Cc1cccc(-n2ccnc2SCC(=O)O)c1C", "activity change, negative = growth inhibition": "inactive: -13.9%"}, {"smiles": "Cc1cc(C)c(-c2c(N)cc(Br)cc2Br)c(N)c1", "Potency": "inconclusive [inhibitor, single point]"}, {"smiles": "CCOc1ccc(-c2cn3c(n2)sc2cc(C(=O)NC(C)C45CC6CC(CC(C6)C4)C5)ccc23)cc1", "note": "(stereo unspecified)", "Potency": "inconclusive [inhibitor, partial curve]"}, {"smiles": "O=C(NNC(=O)c1csc(-c2ccccc2)n1)c1ccccc1", "Potency": "inconclusive [inhibitor, single point]"}, {"smiles": "COc1ccccc1OCCCN1CCC(C(O)(c2ccccc2)c2ccccc2)CC1", "Potency": "active: 20.6 µM"}, {"smiles": "Cc1ccc(-c2csc3nc(CSc4nnc(-c5ccc(Cl)cc5)n4C)[nH]c(=O)c23)cc1", "Potency": "inconclusive [inhibitor, single point]"}, {"smiles": "Cc1ccc(SCC(=O)c2c(C)nc3cc(C)ccn23)cc1", "Potency": "inconclusive [inhibitor, partial curve]"}, {"smiles": "C=C1CCC2[C@](C)(CO)[C@H](O)CC[C@@]2(C)[C@@H]1C/C=C1\\C(=O)OC[C@H]1O", "note": "(stereo partly specified)", "Potency": "active: 4.61 µM"}, {"smiles": "O=C(N/N=C/c1cccc([N+](=O)[O-])c1)c1cccc(Br)c1", "activity change, negative = growth inhibition": "inactive: -16.3%"}, {"smiles": "Cn1cc(C(=O)Nc2cccc(F)c2)cn1", "activity change, negative = growth inhibition": "inactive: -1.41%"}, {"smiles": "CCC(Sc1nnc(-c2ccc(F)cc2)c(-c2ccc(F)cc2)n1)C(=O)NC1CCCC1", "note": "(stereo unspecified)", "Potency": "inconclusive [inhibitor, single point]"}, {"smiles": "COc1ccc2nc3ccccc3nc2c1NC(=O)c1ccccc1Cl", "Potency": "inconclusive [inhibitor, partial curve, poor fit]"}, {"smiles": "Cc1cc(C)c(C)c(S(=O)(=O)NCc2ccc(C(=O)N3CCCC3)cc2)c1C", "Potency": "inconclusive [inhibitor, single point]"}, {"smiles": "CN1CCCc2cc(C=O)ccc21", "activity change, negative = growth inhibition": "inactive: -11%"}, {"smiles": "CC1CC(C)CN(c2cc3c(cc2[N+](=O)[O-])C(=O)N(c2ccccc2)C3=O)C1", "note": "(stereo unspecified)", "Potency": "inconclusive [inhibitor, single point]"}, {"smiles": "CN1OC[C@@H]2CN(C(=O)C(C)(C)C)[C@H](c3cccc(-c4ccccc4)c3)C[C@@H]21", "activity change, negative = growth inhibition": "inactive: -6.33%"}, {"smiles": "CCNC(=O)Cc1ccc(NS(=O)(=O)c2ccc(F)cc2)cc1", "activity change, negative = growth inhibition": "inactive: 22.5%"}, {"smiles": "CC(Nc1oc(-c2ccc(COc3ccccc3)o2)nc1C#N)c1ccccc1", "note": "(stereo unspecified)", "Potency": "active: 9.2 µM"}, {"smiles": "CC(C)CCNC(=O)c1onc(CSc2ccccc2)c1C(=O)NCCC(C)C", "Potency": "inconclusive [inhibitor, single point]"}, {"smiles": "COCc1c(C(=O)N2CCN(Cc3c(F)cccc3Cl)CC2)oc2ccccc12", "Potency": "active: 20.6 µM"}, {"smiles": "NCc1csc(Nc2ncccn2)n1", "Potency": "inconclusive [inhibitor, partial curve]"}, {"smiles": "CCOC(=O)c1sc2nc(C)[nH]c(=S)c2c1C", "Potency": "active: 20.6 µM"}, {"smiles": "CCC(=O)N1CCc2cc(S(=O)(=O)CCC(=O)Nc3cc(Cl)ccc3OC)ccc21", "Potency": "inconclusive [inhibitor, single point]"}, {"smiles": "COc1ccc(CCNc2ncnc3sc(C)cc23)cc1OC", "Potency": "active: 0.259 µM"}, {"smiles": "N#Cc1cc(-c2ccccc2)nnc1Sc1ccc(Cl)cc1", "Potency": "inconclusive [inhibitor, single point]"}, {"smiles": "CCOC(=O)c1c(CN(C)C)n(-c2ccc(C)cc2)c2cc(Br)c(O)cc12", "Potency": "inconclusive [inhibitor, single point]"}, {"smiles": "CCc1ccccc1N(CC(=O)N1CCCCC1)S(=O)(=O)c1ccccc1", "Potency": "inconclusive [inhibitor, single point]"}, {"smiles": "S=C(NCc1cccs1)Nc1ccc(Cl)cc1", "Potency": "inconclusive [inhibitor, single point]"}, {"smiles": "COC(=O)c1ccc(N2CCN(C)CC2)c(NC(=O)c2cccs2)c1", "activity change, negative = growth inhibition": "inactive: 6.08%"}, {"smiles": "O=C(Nc1ccccc1Cl)c1ccc(-c2ccccn2)s1", "activity change, negative = growth inhibition": "inactive: -3.88%"}, {"smiles": "CN(C1=C(NC(=O)c2ccccc2)C(=O)c2ccccc2C1=O)C1CCS(=O)(=O)C1", "note": "(stereo unspecified)", "Potency": "active: 2.59 µM"}, {"smiles": "COc1ccc2c(C)c(Cc3ccccc3)c(=O)oc2c1OC", "Potency": "inconclusive [inhibitor, single point]"}, {"smiles": "Cc1ccc(S(=O)(=O)/N=C(\\c2ccccc2)N(C)S(=O)(=O)c2ccccc2)cc1", "Potency": "inconclusive [inhibitor, single point]"}, {"smiles": "Cc1ccccc1OCC(=O)NNC(=O)Nc1ccc(Cl)cc1", "Potency": "active: 4.61 µM"}, {"smiles": "CCCNC(=O)CCc1c(C)nc2nc(C)nn2c1C", "activity change, negative = growth inhibition": "inactive: 7.25%"}, {"smiles": "CC(=O)Nc1cc(-c2nn3c(C)nnc3s2)ccc1C", "activity change, negative = growth inhibition": "inactive: -0.0049%"}, {"smiles": "O=C1C=C(c2cccc(O)c2)C[C@@H](c2ccc(F)cc2)C1", "Potency": "inconclusive [inhibitor, single point]"}, {"smiles": "COc1ccc(CNC(=O)C2CCN(S(=O)(=O)c3cccc(-c4noc(C)n4)c3)CC2)cc1", "Potency": "active: 9.2 µM"}, {"smiles": "O=C(CCN1C(=O)c2ccc(Br)cc2C1=O)NC1CCCCC1", "activity change, negative = growth inhibition": "inactive: 4.88%"}, {"smiles": "CC1=NOC(=O)/C1=C\\c1ccccc1", "activity change, negative = growth inhibition": "inactive: -19.8%"}, {"smiles": "O=C(NC(=S)Nc1ccc(-c2ccc(CO)o2)cc1)c1cccs1", "Potency": "inconclusive [inhibitor, partial curve, poor fit]"}, {"smiles": "Cc1cccc(Cn2c(CN3CCC(C(=O)NC(C)C)CC3)cc3ccccc32)c1", "Potency": "active: 23.1 µM"}, {"smiles": "Cc1cc(C)cc(C(=O)NN2CCN(C)CC2)c1", "Potency": "inconclusive [inhibitor, single point]"}, {"smiles": "COc1ccccc1NC(=O)CSc1nnc(-c2ccoc2C)n1CCc1ccccc1", "Potency": "inconclusive [inhibitor, single point]"}, {"smiles": "CC1CN(CCOc2ccc(Cl)cc2Cl)CC(C)O1", "note": "(stereo unspecified)", "Potency": "inconclusive [inhibitor, single point]"}, {"smiles": "O=C(COn1nnc2ccc(Cl)cc21)NC12CC3CC(CC(C3)C1)C2", "Potency": "inconclusive [inhibitor, single point]"}]}]}
